Among the data in the supplement of paper PMC12067230 are amyloid nucleation score values, retold here.

Single values of this set are uncertain.
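Note: [psi-pin-] Saccharomyces cerevisiae expressing SupN fusions, induced by 100 µM Cu2SO4, selected 7 d at 30 °C without adenine and uracil, scored by deep sequencing of output versus input.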

A short description of one series: amyloid nucleation score relative to library mode (yeast Sup35 reporter selection) (log enrichment difference); higher = more amyloid nucleation; sequences are the first 22 residues of the Bri2 peptide extended by up to 12 random residues. Conditions: random library (experiment): 1;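 active = nucleation score significantly above 0 at FDR 0.05; inactive = not significantly above 0 or absent from output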.
In the case of EASNCFAIRHFENKFAVETLICGYKHCALPSCGT, the amyloid nucleation score result is “inactive”. With EASNCFAIRHFENKFAVETLICGYLHPWY, the amyloid nucleation score result is “inactive”.

In the case of EASNCFAIRHFENKFAVETLICGYLKNIVGILIW, the amyloid nucleation score result was “inactive”.

In the case of EASNCFAIRHFENKFAVETLICGYLLNVTRVLIQ, the amyloid nucleation score entry was “inactive”. In the case of EASNCFAIRHFENKFAVETLICGYP, the amyloid nucleation score result was “inactive”. With EASNCFAIRHFENKFAVETLICGYPASSRVAKM, the amyloid nucleation score is 1.41. For the sequence EASNCFAIRHFENKFAVETLICGYQWSLCYDSVI, the amyloid nucleation score result is “inactive”.

The sequence EASNCFAIRHFENKFAVETLICGYR displayed an amyloid nucleation score of 0.609.

Take EASNCFAIRHFENKFAVETLICGYRMCPVMIIVW: the amyloid nucleation score entry was “inactive”. In turn, EASNCFAIRHFENKFAVETLICGYRSAVSLCVWR gave an amyloid nucleation score of 1.2. Still for that read-out and setting: as for EASNCFAIRHFENKFAVETLICGYSAAG, the figure is 0.664.

On to EASNCFAIRHFENKFAVETLICGYTSWQAVVRRT, for which the amyloid nucleation score was 2.7. In turn, EASNCFAIRHFENKFAVETLICGYTVFYTKKFDE returned an amyloid nucleation score of 6.6. The same measure, in the same setting: as for EASNCFAIRHFENKFAVETLICGYVKSFSMVLWV, the entry is “inactive”. The sequence EASNCFAIRHFENKFAVETLICGYVMPNYWGDDG displayed an amyloid nucleation score of 4.8. Regarding EASNCFAIRHFENKFAVETLICGYVRYCMLFEV, the amyloid nucleation score entry was “inactive”. Regarding EASNCFAIRHFENKFAVETLICGYWAWRMFDKWS, the amyloid nucleation score entry is “inactive”. EASNCFAIRHFENKFAVETLICGYWVQQRYCSVL: the amyloid nucleation score entry is “inactive”.

For EASNCFAIRHFENKFAVETLICHA, the amyloid nucleation score entry was “inactive”. On the same count and under the same terms, under EASNCFAIRHFENKFAVETLICHACLCRDGKPKG stands 8.15. As for EASNCFAIRHFENKFAVETLICHAHWVTASGLLG, the amyloid nucleation score entry is “inactive”.

As for EASNCFAIRHFENKFAVETLICHAM, the amyloid nucleation score result is “inactive”.

Consider EASNCFAIRHFENKFAVETLICHAQRFWRSLRLS, for which the amyloid nucleation score entry was “inactive”. The same measure, in the same setting: as for EASNCFAIRHFENKFAVETLICHARKCVQRHVGG, the figure is -0.12; as for EASNCFAIRHFENKFAVETLICHARRGLNSWLGS, “inactive”. On to EASNCFAIRHFENKFAVETLICHASVQHVRMSIG, for which the amyloid nucleation score result was “inactive”.

EASNCFAIRHFENKFAVETLICHAVASGAFVKGV gave an amyloid nucleation score of 3.17. Consider EASNCFAIRHFENKFAVETLICHAYLTVA, for which the amyloid nucleation score entry is “inactive”.

For EASNCFAIRHFENKFAVETLICHCAGSGLRLGMS, the amyloid nucleation score came to 5.71. On the same count and under the same terms, under EASNCFAIRHFENKFAVETLICHCGETEPWVRAG stands 3.99. Consider EASNCFAIRHFENKFAVETLICHCKVMA, for which the amyloid nucleation score entry is “inactive”.

Take EASNCFAIRHFENKFAVETLICHCLGGE: the amyloid nucleation score was determined as 7.63.

EASNCFAIRHFENKFAVETLICHCQISAIRLSSV gave an amyloid nucleation score of 4.56. As to EASNCFAIRHFENKFAVETLICHCSFVLSQFVQD, the amyloid nucleation score was 2.55. EASNCFAIRHFENKFAVETLICHCSWDLICGTAA: the amyloid nucleation score result is “inactive”. In turn, EASNCFAIRHFENKFAVETLICHCTLF displayed an amyloid nucleation score of 8.58. As to EASNCFAIRHFENKFAVETLICHCVCQYIVCALR, the amyloid nucleation score result is “inactive”. EASNCFAIRHFENKFAVETLICHCVECCVGTSS returned an amyloid nucleation score of 5.81. In the case of EASNCFAIRHFENKFAVETLICHDDSVNMRCPSA, the amyloid nucleation score entry was “inactive”. For EASNCFAIRHFENKFAVETLICHDGCTANVSSPR, the amyloid nucleation score result was “inactive”.

EASNCFAIRHFENKFAVETLICHDGEWPGLWDGD: the amyloid nucleation score came to 0.547.

Still in this series, the particulars now being: random library (experiment): 2.
For EASNCFAIRHFENKFAVETLICGYGWRTGECCGL, the amyloid nucleation score entry is “inactive”. Still for that read-out and setting: as for EASNCFAIRHFENKFAVETLICGYIDIRGFLDLV, the figure is 4.66; as for EASNCFAIRHFENKFAVETLICGYIMTIGGWDV, 4.58; as for EASNCFAIRHFENKFAVETLICGYNYHSNVTSTL, “inactive”.

EASNCFAIRHFENKFAVETLICGYPT came in with an amyloid nucleation score of 4.5. Sequence EASNCFAIRHFENKFAVETLICGYSCKTTLMVVT came in with an amyloid nucleation score of 0.494. With EASNCFAIRHFENKFAVETLICGYSHSKMNKVKC, the amyloid nucleation score result is “inactive”. On the same count and under the same terms, as for EASNCFAIRHFENKFAVETLICGYSNRKITERGG, the entry is “inactive”. Regarding EASNCFAIRHFENKFAVETLICGYSV, the amyloid nucleation score result was “inactive”. The same measure, in the same setting: under EASNCFAIRHFENKFAVETLICGYSVKLQYCNAS stands “inactive”. As for EASNCFAIRHFENKFAVETLICGYTFCCYVGPRS, the amyloid nucleation score result is “inactive”. Take EASNCFAIRHFENKFAVETLICGYV: the amyloid nucleation score result is “inactive”. The same measure, in the same setting: under EASNCFAIRHFENKFAVETLICGYVCFRCCGRMW stands “inactive”. In the case of EASNCFAIRHFENKFAVETLICGYVDMFSIVLDR, the amyloid nucleation score turned out to be 2.15.

EASNCFAIRHFENKFAVETLICGYVMFYDNIRRR: the amyloid nucleation score is 2.95. On the same count and under the same terms, under EASNCFAIRHFENKFAVETLICGYVVIMLSLYVW stands “inactive”.

For EASNCFAIRHFENKFAVETLICGYWGYEYGNGME, the amyloid nucleation score entry was “inactive”. For EASNCFAIRHFENKFAVETLICHAAYEIVWKYCV, the amyloid nucleation score entry was “inactive”. Consider EASNCFAIRHFENKFAVETLICHAFEIQSECGLR, for which the amyloid nucleation score entry is “inactive”. On to EASNCFAIRHFENKFAVETLICHAKFMWNCDLTK, for which the amyloid nucleation score worked out at 2.78.

As to EASNCFAIRHFENKFAVETLICHARFFGREIVYY, the amyloid nucleation score result was “inactive”. Turning to EASNCFAIRHFENKFAVETLICHASRTFWLIEIW, the amyloid nucleation score entry was “inactive”.

Sequence EASNCFAIRHFENKFAVETLICHAYHQVSFYGTD showed an amyloid nucleation score of 4.71. Still for that read-out and setting: under EASNCFAIRHFENKFAVETLICHAYLGYMCAYAA stands “inactive”.

Turning to EASNCFAIRHFENKFAVETLICHCEV, the amyloid nucleation score entry was “inactive”. The same measure, in the same setting: under EASNCFAIRHFENKFAVETLICHCFMDAGNGVAM stands 8.96; under EASNCFAIRHFENKFAVETLICHCLIWCSNRWFI, 0.644. Take EASNCFAIRHFENKFAVETLICHCMLVHVTRTIW: the amyloid nucleation score was 1.41. EASNCFAIRHFENKFAVETLICHCMSFSVSRYYP yielded an amyloid nucleation score of 6.48. Still for that read-out and setting: under EASNCFAIRHFENKFAVETLICHCS stands “inactive”; under EASNCFAIRHFENKFAVETLICHCYSSDSESLGK, 6.72. Take EASNCFAIRHFENKFAVETLICHDASFRVIRIGS: the amyloid nucleation score result is “inactive”.

EASNCFAIRHFENKFAVETLICHDGARVTMKGSG came in with an amyloid nucleation score of 1.89.

For the sequence EASNCFAIRHFENKFAVETLICHDKKTTVVMGLG, the amyloid nucleation score entry is “inactive”.

The series is the same for the next values; noted with them: random library (experiment): 3.
As to EASNCFAIRHFENKFAVETLICGYGWVSFRWYEA, the amyloid nucleation score result is “inactive”. As to EASNCFAIRHFENKFAVETLICGYKLTCECVFST, the amyloid nucleation score entry was “inactive”. Consider EASNCFAIRHFENKFAVETLICGYLIVVLTHRID, for which the amyloid nucleation score entry was “inactive”. On the same count and under the same terms, as for EASNCFAIRHFENKFAVETLICGYLWSEAFVRGS, the entry is “inactive”. On to EASNCFAIRHFENKFAVETLICGYLYRSLECPDS, for which the amyloid nucleation score result is “inactive”.

Turning to EASNCFAIRHFENKFAVETLICGYMSRWDISVCV, the amyloid nucleation score entry is “inactive”.

On to EASNCFAIRHFENKFAVETLICGYRD, for which the amyloid nucleation score entry is “inactive”. Consider EASNCFAIRHFENKFAVETLICGYTLNGLHTGDR, for which the amyloid nucleation score result is “inactive”. In the case of EASNCFAIRHFENKFAVETLICGYVAWVWRSWRR, the amyloid nucleation score result was “inactive”. As for EASNCFAIRHFENKFAVETLICGYVNIHL, the amyloid nucleation score was determined as 8.54. Consider EASNCFAIRHFENKFAVETLICGYW, for which the amyloid nucleation score entry was “inactive”. As to EASNCFAIRHFENKFAVETLICGYYM, the amyloid nucleation score entry is “inactive”.

EASNCFAIRHFENKFAVETLICHACNAEMWRSLS returned an amyloid nucleation score of 0.0182. As for EASNCFAIRHFENKFAVETLICHADGQSSALAGW, the amyloid nucleation score result is “inactive”. Sequence EASNCFAIRHFENKFAVETLICHAHCEDYDITFQ returned an amyloid nucleation score of 0. On the same count and under the same terms, as for EASNCFAIRHFENKFAVETLICHAHHSAAGLNWL, the figure is 2.66; as for EASNCFAIRHFENKFAVETLICHAKCS, “inactive”; as for EASNCFAIRHFENKFAVETLICHASQMER, “inactive”. Same read-out and setting: as for EASNCFAIRHFENKFAVETLICHAVHHSYFVVGR, the entry is “inactive”. The sequence EASNCFAIRHFENKFAVETLICHCCYCLSLCARM gave an amyloid nucleation score of 3.57.

With EASNCFAIRHFENKFAVETLICHCHNRRERTCLQ, the amyloid nucleation score came to 3.85.

Sequence EASNCFAIRHFENKFAVETLICHCPCKSRRVNAG came in with an amyloid nucleation score of 7.99. Still for that read-out and setting: as for EASNCFAIRHFENKFAVETLICHCTLMNLSYVKV, the figure is 0.0461; as for EASNCFAIRHFENKFAVETLICHCWKCYVHGTGM, “inactive”; as for EASNCFAIRHFENKFAVETLICHDHI, 0.702. The same measure, in the same setting: under EASNCFAIRHFENKFAVETLICHDMNG stands “inactive”; under EASNCFAIRHFENKFAVETLICHDNRSVRSVSHM, “inactive”; under EASNCFAIRHFENKFAVETLICHDPSGVSGKGNQ, “inactive”.
